B1: LINE1-full (parent)
chain: UACGUAGGUGGUUUUCCCCUGAUAGUGCUAAGGGGGCCUGGAAGUUUGGACUGGGCAGAGCUCAACACAGCGUGGCAAAGUGGCUGUGGCUAGACUGCCUCUCUGGAUUCCUCGUCACUCAGCAGGGCAUCUCUGAGAGAAAUGCC

The source gives no read counts; variants with many changes may rest on few reads.

Variants of B1 are the subject of the data set. As to the kind of experiment: self-cleavage, relative activity (ratio to wild type); higher = more cleavage; in vitro, sequencing; the parent is a self-cleaving ribozyme.
Regarding UACGUAGGUGGUUUUCCCCUGCUAGUGCUAAGGGGGCCUGGAAGUUUGGACUGGGCUGAGCUCCACACAGCGUGGCAAAGUGGCUGUGGCUAGACUGCCUCUCUGGUUUCCUCGUCACUCAGCAGGGCAUCUCUGAGAGAAAUGCC, the self-cleavage stood at 0.07.

Turning to UACGUAGGUGGUUUUCCCCUGAUAGUGCUAAGGGGCCCUGGAUGUUUGGACUGGGCGGAGCUCAACACAGCGUGGCAAAGUGGCUGUGGCUAGACUGCCUCUCUGGAUUCCUCGUCACUCAGCAGGGCAUCUCUGUGAGAAAUGCC, the self-cleavage came to 0.57.

With UACGUAGGUGGUUUACCCCUGAUUGUGCUAAGGGGGCCUGGAAGUUUGGACUGGGCAGAGCUCAACACAGCGUGGCAAAGUGGCUGUGGCUAGACUGCCUCUCUGGAUUCCUCGUCACUCAGCAGGGCCUCUCUGAGAGAAAUGCC, the self-cleavage came out at 0.94.

As to UACGUAGGUGGUCUUCCCCUGAUAGUGCUAAGGGGGCCUGGAAGUUUGGACUGGGCAGAGCUCAACACAGCGUGGCAAAGUGGCCGUGGCUAGACUGCCUCUCUGGAUUCCUCGACACCCAGCAGGGCAUCUCUGAGAGAAAUGCC, the self-cleavage came to 0.56.

For the variant UACGUAGGUGGUUUUCCCCUGAUAGUGCCAAGGGGGCCUGGAAGUUUGGACUGGGCAGAGCUCAACGCAGCGUGGCAAAGUGGCUGUGGCUAGACUGCCUCUCUGGAUUCCUCGUCACUCAGCAGGGCAUCUCUGAGAGGAAUGCC, the self-cleavage was determined as 0.

In the case of UACGUAGGUGGGUUUCCCCUGAUAGUGCUAAGGGGGCCUGGAAGUUUGGACCGGACAGAGCUCAACACAGCGUGGCGAAGUGGCUGUGGCUAGACUGCCUCUCUGGAUUCCUCGUCACUCAGCAGGGCAUCUCUGAGAAAAAUGCC, the self-cleavage is 0.57.

Consider UACGUAGGUGGUUUUCCCCUGUUAGCGCUAAGGGGGCCUGGAAGUUUGGACUGAGCAGAGCUCAACACAGCGUGGCAAAGUGGCAGUGGCUAGACUGCCUCUCUGGAUUCCUCGCCACUCAGCAGGGCAUCUCUGAGAGAAAUGCC, for which the self-cleavage turned out to be 0.04.

Regarding UACGUAGGUGGUCUUCCCCCGAUAGUGCUAAGGGGGCCUGGAAGUUUGGACUGGGCAGAGCUCAACACAGCGUGGCAAAGUGGCUGUGGCUAGACUGCCUCUCUGGAUUCCUCGUCACUCAGCAGGGCAUCCCUGAGAGAAAUGCC, the self-cleavage came out at 0.79.

Take UACGUAGGUGGUUUUCCCCUGAUAGUGCUAAGGGGGCCUGGAAGUUUGGACUGGGGAGAGCUCUACACAGCGUGGCAAUGUGGCUGUGGCUAGACUGCCUCUCUGGAUUCCUCGUCACUCAGCAGGGCAUCUCUGAGAGAAAUGCC: the self-cleavage came out at 0.04.

As for UACGUAGGUGGUUUUCCCCUGAUAGUGCUAAGGGGGCCUGGAAGUUUGGACUGGGCAGAGCUCAACACAGCUUGGCAAAGUGGCUGUGGCUAGACUGCCUCUCUGUAUUCCUCGUCACUCAGCAGGGCACCUCUGAGAGAAAUGCC, the self-cleavage came out at 0.89.

Regarding UACGUAGGUGGUUUUCCCCUGAUAGUGCUAAGGGGGCCUGGAAGAUUGGACUGGGCAGAGCUCAACACAGCGUGGCAAAGUGGCUGUGGCUGGACUGCCUCUCUGGAUUCCUCGUCACUCAGCAGGGCAUCCCUGAGAGAAAUACC, the self-cleavage is 0.

Turning to UACGUAGGUGGUUUUCCCCUGAUAGUGCUAAGGGGGCCUGGAAGUUUGGGCUGGGCAGAGCUCAACACAGCGUGGCAAAGUGGCUGUGGCUAGACUGCCUCUCUGGAUUCCUCGUCACUCGGCAGGGCAUCCCUGAGAGAAAUGCC, the self-cleavage was determined as 0.61.

Consider UACGUAGGUGGUUUUCCCCUGAUAGUGCUGAGGGGGCCUGGAAGUUUGGACUGGGCAGAGCUCAACCCAGCGUGGCAAAGUGGCUGUGGCUAGACUGCCUCUCUGGAUUCCUCGUCACUCAGCAGGGCUUCUCUGAGAGGAAUGCC, for which the self-cleavage worked out at 0.

Turning to UACGUAGGUGGUUUUCCCCUGAUAGUGCUAAGGGGGCCUGGAAGUCUGGACUGGGUAGAGCUCAACACAGCGUGGCAAAGUGGCUGUGGCUAGACUGCCUCACUGGAUUCCUCGUCACUCAGCAGGGCAUCUCUGAGAGAAAUGCC, the self-cleavage was found to be 0.09.

UACGUAGGUGGUUUUCCCCUGAUAGUGCUAAGGGGGCCUGGAGGUUUGGACUGGGCAGAGCUCAACACAGCGUGGCAGAGUGGCUGUGGCUAGACUGCCUCUCUGGAUUCCUCGUCACUCAGCGGGGCAUCUCUGAGAGAAAUGCC: the self-cleavage worked out at 0.43.

As for UAUGUAGGUGGUUUUCCCCUGAUAGUGCUAAGGGGGCCUGGAAGUUUGGACUGGGCAGAGCUCAACACAGCGUGGCAAAGUGGCUGUGGCUAGACUGCCUCUCUGGUUUCCUCGUCACUUAGCAGGGCAUCUCUGAGAGAAAUGCC, the self-cleavage came out at 0.88.

Turning to UACGUAGGUGGUUUUCCCCUGAUAGUGCUAAGGGGGUCUGGAAGUUUGGACUGGGCUGUGCUCAACACAGCGUGGCAAAGUGGCUGUGGCUAGACUGCCUCUCUGGGUUCCUCGUCACUCAGCAGGGCAUCUCUGAGAGAAAUGCC, the self-cleavage worked out at 0.04.

Turning to UACGUAGGUGGUUUCCCCCUGAUAGUGCUAUGGGGGCCUGGAAGUUUGGACUGGGCGGAGCUCAACACAGCGUGGCAAAGUGGCUGUGGCUAGACUGCCUCUCUGGAUUCCUCGUCACUCAGCAGGGCAUCUCUGAGAGAAAUGCC, the self-cleavage is 0.

With UACGUAGGUGGUUUUCCCCUGAUAGUGCUAAGGGGGCCUGGAAGCUUGGACUGGGCAGAGCUCAACACAGCGUGGCUAAGAGGCUGUGGCUAGACUGCCUCUCUGGAUUCCUCGCCACUCAGCAGGGCAUCUCCGAGAGAAAUGCC, the self-cleavage is 2.68.

Turning to UACGUGGGUGGCUUUCCCCUGAUAGUGCUAAGGGGGCCUGGAAGUAUGGACUGGGCAGAGCUCAACACAGCGUGGCAAAGUGGCUGUGGCUAGACUGCCUCUCUGGAUUCCUCGUCACUCAGCAGGGCAUCUCUGAGAGAAAUGCC, the self-cleavage stood at 0.39.

Regarding UACGUAGGUGGUUUCCCCCCGAUAGUGCUAAGGGGGCCUGGAAGUUUGGACUGGGCAGAGCUCAACACGGCGUGGCAAAGUGGCUGUGGCUAGACUGCCUCUCUGGAUUCCUCGUCACUCAGCAGGGCAUCUCUGAGAGGAAUGCC, the self-cleavage turned out to be 0.58.

For the variant UACGUUGGUGGUUUUCCCCUGAUAGUGCUAAGGGCGCCUGGAAGUUUGGACUGGGCAGAGCUCAACACAGCGUGGCAAAGUGGCUGUGGCUAGACCGCCUCUCUGGAUUCCUCGUCACUCAGCAGGGCAUCUCUGAGAGAAAUGCC, the self-cleavage was determined as 0.1.

As for UACGUAGGUGGUUUUCCCCUGAUAGUGCUAAGGGGGCCAGGAAGUUUGGACUGGGCAGAGCUCAACACGGCGUGGCAAAGUGGCUGUGGCUAGACUGCCCCUCUGGAUUCCUCGUCACUCAGCAGGGCAUCUCUGAGAGAAAUGCC, the self-cleavage was found to be 2.45.

For the variant UAAGUAGGUGGUUUUCCCCUGAUAGCGCUAAGGGGGCCUGGAAGUUCGGACUGGGCGGAGCUCAACACAGCGUGGCAAAGUGGCUGUGGCUAGACUGCCUCUCUGGAUUCCUCGCCACUCAGCAGGGCAUCUCUGAGAGAAAUGCC, the self-cleavage came out at 1.53.

Take UACGUAGGUGGCUUUCCCCUGACAGUGCUAAGGGGGCCUGGAAGUUCGGACUGGGCGGAGCUCAACACAGCGUGGCAAAGUGGCUGUGGCUAGACUGCCUCUCUGGAUUCCUCGUCACUCAGCAGGGCAUCUCUGAGAGAAAUGCC: the self-cleavage stood at 0.

Take UACGUAGGUGGUUUUCCCCUGAUAGUGCUAAGGGGGCCUGGAAGUAUGGACUGGGCAGAGCUCAACACGGCGUGGCAAAGUGGCUGUGGCUAGACUGCCUCUCUGGAUUCCUCGUCACUCAGCAGGGCAUCUCUGAGAGGAAUGCC: the self-cleavage was found to be 0.39.

As to UACGUAGGUGGUUUCCCCCUGUUAGUGCUAAGGGGGCCUGGAAGUUUGGACUGGGCAGAGCCCAACACAGCGUGGCAAAGUGGCUGUGGCUAGACUGCCUCUCUGGAUUCCUCGUCACUCAGCAGGGCAUCUCUGAGAGAAAUGCC, the self-cleavage was found to be 0.06.

With UACGUAGGUGGUUUUACCCUGAUAGUGCUAAGGGGGCCUGGAAGUUUGGACUGGGCAGAGCUCAACACAGCGUGGCAAAGUGGCUGUGGCUUGACUGCCUCUCUGGAUUCCUCGUCACUCAGCAGGGCACCUCUGAGAGAGAUGCC, the self-cleavage amounted to 0.35.

With UACGUAGGCGGUUAUCCCCUGAUAGUGCUAAGGGGGCUUGGAAGAUUGGACUGGGCAGAGCCCAACACAGCGUGGCAAAGUGGCUGUGGCUAGACUGCCUCUCUGGAUUCCCCGUCACUCAGCAGGGCAUCUCUGAGAGAAAUGCC, the self-cleavage was determined as 0.13.

As to UACGUAGGUGGUUUUCCCCUGAUAGUGCUAAGGGGGCCUGGAGGUUUGGACUGGGCAGAGCUCAACACAGCGUGGCUAAGUGGCUGUGGCUAGACUGCCCCUCUGGAUUCCUCGUCACUCAGCAGGGCAUCUCUGAGGGAAAUGCC, the self-cleavage was 2.12.

On to UACGUAGGUGGUUUUCCCCAGAUAGUGCUAAGGGGGCCUGGGAGUUUGGACUGGGCAGAGCUCAACACAGCGCGGCAAAGUGGCUGUGGCUAGACAGCCUCUCUGGAUUCCUCGUCACUCAGCAGGGCAUCCCUGAGAGAAAUGCC, for which the self-cleavage worked out at 0.

Turning to UACGUAGGUGGUUUUCCCCUGAUAGUGCUAAGGGGGCCUGGAAGAUUGGACUGGGCAGAGCUCAACACAGCGUGGCAAGGUGGCUGUGGCUAGACUGCCUCUCUGGAUUCCUCGUCACUCAGUAGGGCAUCUCUGAGAGGAAUGCC, the self-cleavage turned out to be 0.69.

As for UACGUAGGUGGUCUUCCCCUGAUAGUGCUAAGGGGGCCUGGAAGUUUGGACUGGGCAGAGCUCAACACAGCGUGGCAAAGAGGCUGAGGCUAGACUGCCUCUCUGGAUUCCUCGUCUCUCAGCAGGGCAUCUCUGAGAGAAAUGCC, the self-cleavage turned out to be 0.17.

On to UACAUAGGUGGUUCUCCCCUGAUAGUGCUAAGGGGGCCUGGAAGUUUGGACUGGGCAGAGCUCAACACAGCGUGGCAAAGUGGCUGUGGCUAGACUGCCUCUCUGGAUUCCCCGUCACUCAGCAGGGCAUCUCUGAGAGAAAUGCC, for which the self-cleavage worked out at 0.84.

Regarding UACGUAGGUGGUUUUCCCCUGAUAGUGCUAAGGGGGCCCGGAAGUUUGGACUGGGCAGAGCUCAACACAGCGUGGCGAAGUGGCUGUGGCUAGACUGCCUCUCUGGAUUCCUCGUCACUCAGCAGGGCAUCUCUGAGGGAAAUGCC, the self-cleavage was determined as 1.64.

For the variant UACGUAGGUGGUUUUCCCCUGAUAGUGCUAAAGGGGCCUGGAGGUUUGGACUGGGCAGAGCUCAACACAGCGUGGCAGAGUGGCUGUGGCUAGACUGCCUCUCUGGAUUCCUCGUCACUCAGCAGGGCAUCUCUGAGAGAAAUGCC, the self-cleavage amounted to 0.93.

With UACGUAGGCGGUUUUCCCCUGAUAGUGCUAAGGGGGCCUGGAAGUUUGGACUGGGCAGAGCUCAACACAGCGUGGCAAAGUGGCCGUGGCUAGACAGCCUCUCUGGAUUCCUCGUCACUCAGCAGGGCAUCUCUGAGAGAAAUGCC, the self-cleavage is 0.13.

Turning to UACGUAGGUGGUUUUCCCAUGGUAGUGCUAAGGGGGCCUGGAAGUUUGGACUGGGCAGAGCUCAACACAGCGUGGCGAAGUGGCUGUGGCUAGACUGCCUCUCUGGAUUCCUCGUCACUCAGCAGGGCAUCUCUGAGGGAGAAGCC, the self-cleavage amounted to 2.51.

As for UACGUAGGUGGUUUCCCCCUGAUAGUGCUGAGGGGGCCUGGGAGUUUGGUCUGGGCAGAGCUCAACACAGCGUGGCAAAGUGGCUGUGGCUAGACUGCCUCGCUGGAUUCCUCGUCACUCAGCAGGGCAUCCCUGAGAGAAAUGCC, the self-cleavage was found to be 0.

The record behind these values is the RNAGym collection of RNA variant scans (doi:10.7554/elife.90254).
